Data: PubChem BioAssay AID588855 (National Center for Advancing Translational Sciences (NCATS), 2011)
Screen size: about 410,000 compounds; about 5,000 (1.2%) were called active. The shares of active, inactive and inconclusive entries below differ from those in the screen. The call rests on the fitted dose curve; in most records, active means well fitted inhibition curve with a large enough effect; inconclusive means small, poorly fitted or top-dose-only effect; inactive means no such curve, though single readings can be large or run the other way. Potencies beside an inconclusive call are fits to weak or partial responses and may not hold up.

assay: qHTS for Inhibitors of TGF-b; settings: HepG2 CAGA-GFP TGF-b/SMAD3 reporter, GFP fluorescence, 18 h, TGF-beta stimulated, 500 pg/mL final; series mostly up to 46.1 µM; activity, negative = inhibition: at the top concentration; further: nearly all actives have a fitted effect of over 65% in size
Method in brief: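 Smad-responsive CAGA-GFP expression was quantified in HEPG2 cells exposed to compounds and 500 pg/mL final TGF-beta for 18 h at 37 degrees C; unstimulated wells defined full inhibition.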
On the % scale 0 is the no-effect control and ±100 the full control effect; potency means the concentration at half of the fitted maximal effect; tags describe the fitted curve by direction and shape.

| Structure (SMILES) | Potency | activity, negative = inhibition |
| --- | --- | --- |
| CCC1(O)C(=O)OCc2c1cc1n(c2=O)Cc2cc3cc(O)ccc3nc2-1 (stereo not drawn) | inconclusive: 1.78 µM [inhibitor, full curve, poor fit] |  |
| Cc1noc(C)c1COc1ccc(C(=O)NCC2(N(C)C)CCCCC2)cc1 |  | inactive: -6.12% |
| COCCCn1c(-c2ccc(OC)cc2)cc(C(=O)NC2CCCCCCC2)c1C | inconclusive: 35.5 µM [inhibitor, single point] |  |
| C/C(=N\N1CCCCCC1)c1c(O)n(C2CCCCC2)c(=O)[nH]c1=O | inconclusive: 35.5 µM [inhibitor, single point] |  |
| CC(C)OP(=O)(OC(C)C)C(Nc1ccccc1)c1cccc2c1OCO2 (stereo not drawn) | inconclusive: 3.16 µM [inhibitor, partial curve, poor fit] |  |
| O=C(CNC(=O)c1cccc(Cl)c1)Nc1ccc(Br)cc1C(=O)c1ccccc1 | inconclusive: 25.1 µM [inhibitor, partial curve, poor fit] |  |
| COc1ccc(-n2nnnc2C(c2cccs2)N2CCC3(CC2)C(=O)NCN3c2ccccc2)cc1 (stereo not drawn) | inconclusive: 35.5 µM [inhibitor, single point] |  |
| CN(C)c1ccc(C(=O)c2ccc(N(C)C)cc2)cc1 |  | inactive: 2.88% |
| CC(C)(C)c1ccc(C(=O)Nc2ccc(Cl)cc2C(=O)c2ccccc2)cc1 | inconclusive: 15.8 µM [inhibitor, single point] |  |
| O=C1C2(Cl)C3(Cl)C4(Cl)C(Cl)(Cl)C5(Cl)C3(Cl)C1(Cl)C5(Cl)C24Cl (stereo not drawn) | inconclusive: 15.8 µM [inhibitor, partial curve, poor fit] |  |
| Clc1ccc(C[n+]2c(-c3ccccc3)cc(-c3ccccc3)cc2-c2ccccc2)cc1 | inconclusive: 12.6 µM [inhibitor, partial curve, poor fit] |  |
| CCOC(=O)C1=C(N)Oc2cc(C)oc(=O)c2C12C(=O)N1c3c(cccc32)C(C)CC1(C)C (stereo not drawn) | inconclusive: 1.78 µM [inhibitor, partial curve, poor fit] |  |
| O=C1NC(=O)N(Cc2ccccc2)C(=O)/C1=C\C=C\c1ccco1 | active: 10 µM |  |
| O=S(=O)(c1cc(Cl)cc(Cl)c1)N1Cc2cc(-c3ccccc3)ccc2-n2nncc2C1 |  | inactive: 4.1% |
| COc1ccc2[nH]c(C)c(CCNCc3cccnc3)c2c1 |  | inactive: 15.9% |
| CCOc1c(Cl)cc(CNCCc2c[nH]c3ccccc23)cc1OC | inconclusive: 35.5 µM [inhibitor, single point] |  |
| C=C[C@@H]1C[C@@]1(C)[C@@H](NP(=O)(c1ccccc1)c1ccccc1)c1ccccc1 | inconclusive: 11.2 µM [inhibitor, partial curve] |  |
| O=C(CCS(=O)(=O)c1ccc(Cl)cc1)Nc1cccc(S(=O)(=O)N2CCCCCC2)c1 | inconclusive: 35.5 µM [inhibitor, partial curve, poor fit] |  |
| CCCCCn1c(=O)c(C(=O)NCc2ccncc2)c(O)c2ccccc21 | inconclusive: 35.5 µM [inhibitor, single point] |  |
| CC(c1ccccc1)(c1ccccc1)c1ccncc1 | inconclusive: 10 µM [inhibitor, partial curve, poor fit] |  |
| Cc1ccc(C)c(CN2C(=O)c3ccccc3Sc3ccc(C(=O)N4CCC5(CC4)OCCO5)cc32)c1 | inconclusive: 35.5 µM [inhibitor, single point] |  |

| Structure (SMILES) | Potency | activity, negative = inhibition |
| --- | --- | --- |
| CCCCN1CCC(O)(c2ccccc2)C(C(=O)c2ccccc2)C1 (stereo not drawn) | inconclusive: 10 µM [inhibitor, partial curve, poor fit] |  |
| CC1CCCCN1CC(O)c1c[nH]c2ccccc12 (stereo not drawn) |  | inactive: -19.8% |
| COC(=O)C1=C(c2c(C)noc2C)C[C@@H]2CC[C@H]1N2C(=O)NCCNC(C)=O |  | inactive: 14% |
| Cc1ccc(OP(=O)(NC(C)c2ccccc2)Oc2ccc(C)cc2)cc1 (stereo not drawn) | inconclusive: 35.5 µM [inhibitor, single point] |  |
| Cc1cccc(N2CCN(Cc3ccc4c(c3)OCO4)CC2)c1C | inconclusive: 35.5 µM [inhibitor, single point] |  |
| COc1ccccc1N1CCN(Cc2ccc(SC)cc2)CC1 | inconclusive: 15.8 µM [inhibitor, single point] |  |
| COc1ccc(-n2nnnc2C(c2cccc(OC)c2OC)N2CCC(n3c(=O)[nH]c4ccccc43)CC2)cc1 (stereo not drawn) | inconclusive: 35.5 µM [inhibitor, single point] |  |
| O=C1NCN(c2ccccc2)C12CCN(C(c1ccccc1)c1nnnn1-c1ccc3c(c1)OCCO3)CC2 (stereo not drawn) | inconclusive: 35.5 µM [inhibitor, single point] |  |
| CCOC(C(=O)OCCCN(CC)CC)(c1ccccc1)c1ccccc1 |  | inactive: 18.4% |
| CC(=O)Nc1ccc(S(=O)(=O)N(C)CCOCc2ccccc2)cc1 |  | inactive: 1.67% |
| COCCCNC(=O)Cn1cc(/C=C2\C(=O)NC(=O)N(c3ccccc3F)C2=O)c2ccccc21 | inconclusive: 35.5 µM [inhibitor, single point] |  |
| Cc1ccc(CN2CCCC(C(=O)c3cccc(C(F)(F)F)c3)C2)o1 (stereo not drawn) | inconclusive: 0.631 µM [inhibitor, full curve, poor fit] |  |
| COc1cc2c(cc1OC)[C@@H]1C(=O)c3ccc4c(c3O[C@@H]1CO2)C[C@H](C(C)C)O4 | inconclusive: 2 µM [inhibitor, partial curve] |  |
| COCCNC(=O)c1c(N)n(CCC(C)C)c2nc3ccccc3nc12 | inconclusive: 28.2 µM [inhibitor, single point] |  |
| C[C@]12CC[C@H]3C(CCC4(O)CC(O)CC[C@]34C=O)C1=CC[C@H]2c1ccc(=O)oc1 (stereo partly drawn) | inconclusive: 11.2 µM [inhibitor, single point] |  |
| CN(C)C1(c2nnnn2-c2ccc(Cl)cc2)CCCCC1 |  | inactive: -12.1% |
| O=c1c2ccccc2nc(N2CCCC2)n1-c1ccccc1 | inconclusive: 6.31 µM [inhibitor, single point] |  |
| CN(C)c1ccc(/C=C2\C(=O)NC(=O)N(CCc3ccc(F)cc3)C2=O)cc1 |  | inactive: 2.54% |
| COc1ccc(CNCCc2c(C)[nH]c3ccc(OC(F)(F)F)cc23)c(OC)c1 | inconclusive: 14.1 µM [inhibitor, single point] |  |
| Cc1cccc(CN2C(=O)CN=C(c3ccccc3Cl)c3cc(Cl)ccc32)c1 | inconclusive: 35.5 µM [inhibitor, single point] |  |
| COc1cc2c(c(OC)c1OC)-c1ccc(O)c(=O)cc1C(NC(C)=O)CC2 (stereo not drawn) | inconclusive: 5.01 µM [inhibitor, partial curve, poor fit] |  |

| Structure (SMILES) | Potency | activity, negative = inhibition |
| --- | --- | --- |
| COc1ccc(OC)c(CN2CCCC(C(=O)c3sccc3C)C2)c1 (stereo not drawn) | inconclusive: 10 µM [inhibitor, single point] |  |
| CN(C)c1nc(N(C)C)nc(N(C#N)CCCl)n1 | inconclusive: 0.562 µM [inhibitor, partial curve, poor fit] |  |
| COC(=O)C1=C(c2ccccc2OCc2ccccc2)C[C@@H]2CC[C@H]1N2C(=O)NCc1ccc(Cl)cc1 | inconclusive: 22.4 µM [inhibitor, single point] |  |
| CC(N)Cc1c[nH]c2ccc(Cl)cc12 (stereo not drawn) | inconclusive: 1.26 µM [inhibitor, partial curve, poor fit] |  |
| CCOc1cc2c(cc1OCC)-n1cccc1C(c1cccc([N+](=O)[O-])c1)NC2 (stereo not drawn) | inconclusive: 7.94 µM [inhibitor, partial curve] |  |
| CC(=O)O[C@@H]1CC[C@]2(C)C3CC[C@@]4(C)C(C[C@@H](O)[C@@H]4O)C3[C@@H](OC(C)=O)C[C@H]2C1 (stereo partly drawn) |  | inactive: -2.76% |
| NC(=S)NN=C1CCC2(CCCCC2)CC1 | inconclusive: 15.8 µM [inhibitor, single point] |  |
| COC(=O)C1=C(c2cccc(OC)c2OC)C[C@@H]2CC[C@H]1N2C(=O)NCc1cccc2ccccc12 | inconclusive: 6.31 µM [inhibitor, single point] |  |
| C[C@]12CC[C@H](O)CC1=CCC1C2CC[C@]2(C)C(=O)[C@H](Br)CC12 (stereo partly drawn) | inconclusive: 3.55 µM [inhibitor, partial curve, poor fit] |  |
| O=c1[nH]c(=O)n(-c2cccc(F)c2)c(O)c1/C=C1\C=Nc2ccccc21 | inconclusive: 35.5 µM [inhibitor, single point] |  |
| C/C=C1/C[C@@H](C)[C@](O)(CO)C(=O)OCC2=CCN3CC[C@@H](OC1=O)[C@@H]23 |  | inactive: -6.89% |
| Cc1nn(Cc2ccc(Cl)cc2Cl)c(Cl)c1C(=O)Nc1ccc(OC(F)F)cc1 | inconclusive: 12.6 µM [inhibitor, single point] |  |
| CCOC(=O)C1(CCOc2ccccc2)CCN(Cc2cccc(O)c2)CC1 |  | inactive: -8.96% |
| COc1ccc(-[n+]2c(-c3ccccc3)cc(-c3ccccc3)cc2-c2ccccc2)cc1 | inconclusive: 35.5 µM [inhibitor, single point] |  |
| CCOC(=O)c1ccc(NC(=O)N2CC3CC(C2)c2cccc(=O)n2C3)cc1 (stereo not drawn) |  | inactive: 5.11% |
| COc1ccc(CCCc2nnc(SCC(=O)Nc3ccc(C)c(C)c3)o2)cc1 | inconclusive: 10 µM [inhibitor, partial curve, poor fit] |  |
| COc1cc(C(=O)NCCSc2c(-c3ccccc3)[nH]c3ccccc23)cc(OC)c1OC | inconclusive: 22.4 µM [inhibitor, single point] |  |
| CCN(CC)c1ccc(/C=C2/C(=O)NC(=O)N(Cc3ccco3)C2=O)cc1 |  | inactive: -2.53% |
| Cc1cc(C(C#N)c2ccc(Cl)cc2)c(Cl)cc1NC(=O)c1cc(I)cc(I)c1O (stereo not drawn) | inconclusive: 7.08 µM [inhibitor, partial curve] |  |
| COc1ccc2c(c1OC)C(=O)O[C@@H]2[C@H]1c2cc3c(cc2CCN1C)OCO3 |  | inactive: 0.34% |
| CCn1nc(-c2ccccc2)nc2c(=O)n(C)c(=O)nc1-2 | active: 0.562 µM |  |
